Out of some 46,000 compounds screened, about 60 (0.1%) were called active. Roughly 3% stayed inconclusive and do not appear here. The call rests on the fitted dose curve; in most records, active means well fitted inhibition curve with a large enough effect; inconclusive means small, poorly fitted or top-dose-only effect; inactive means no such curve, though single readings can be large or run the other way. The list shows a part of the results.
Experiment: Primary qHTS assay for Inhibitors of ovarian cancer metastasis using an organotypic tumor microenvironment (TME) model. Further: nearly all actives have a fitted effect of over 65% in size.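 On activity change, negative = inhibition: plate controls were DMSO wells for no effect and tomatine positive control wells for full effect.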
Details: SKOV3ip1-GFP adhesion/invasion on 3D omental model, fluorescence; series mostly up to 45.8 µM; activity change, negative = inhibition: at the top concentration
Method in brief: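 Primary human omental fibroblast/mesothelial 3D culture pre-formed 48 h. SKOV3ip1-GFP cells added with compounds (0.36-46 umol/L), incubated 2 h RT/16 h 37 C, fixed; GFP cells quantified at 488/509 nm.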

| SMILES | activity change, negative = inhibition | outcome |
| --- | --- | --- |
| Cc1cccc(NC(=O)CN2c3ccccc3S(=O)(=O)c3ccccc32)c1C | inactive: -2.96% | – |
| COc1ccc(NC(=O)C2CCCN(S(=O)(=O)c3ccc(Cl)cc3)C2)cc1 (stereo unspecified) | inactive: 0.829% | – |
| Cc1ccc(Cl)cc1NC(=O)C(NS(=O)(=O)c1cccc2nsnc12)c1ccccc1 (stereo unspecified) | inactive: -11.8% | – |
| Cc1ccc(C)c(N2CCN(c3nccn4nc(-c5ccc(Br)cc5)cc34)CC2)c1 | – | inactive |
| CC(=O)c1cc(-c2ccc(F)cc2)n(CC(=O)NC(C)c2ccccc2)c1C (stereo unspecified) | inactive: 7.3% | – |
| Cc1ccccc1NC(=O)Nc1ccc2nc(N3CCN(C)CC3)cc(C)c2c1 | inactive: 0.335% | – |
| Cn1c(=O)oc2cc(S(=O)(=O)CCC(=O)NCCc3ccccc3)ccc21 | – | inactive |
| Cc1cccn2c(=O)c(/C=C(\C#N)c3nc4ccccc4s3)c(Oc3ccc(Br)cc3)nc12 | inactive: -0.444% | – |
| O=C(NCc1ccccc1F)C1CCN(Cc2cc3ccccc3n2Cc2cccc(Cl)c2)CC1 | inactive: 8.72% | – |
| COc1cc(C2c3c(oc4ccccc4c3=O)C(=O)N2c2nc(C)c(C)s2)ccc1O (stereo unspecified) | inactive: 1.73% | – |
| Cc1nc2nc(NC(=O)c3ccc(F)cc3)[nH]n2c(=O)c1Cc1ccccc1 | inactive: 2.6% | – |
| O=C(COCc1cc(-c2cccs2)on1)NCc1ccccc1Cl | – | inactive |
| CC(=O)c1ccc(NC(=O)C2=CC(c3cccs3)=NS(=O)(=O)N2C)cc1 | inactive: 13.8% | – |
| COc1ccc(CNCc2ccc3c(c2)n(C)c(=O)n3C)cc1 | inactive: 4.09% | – |
| COc1cccc(C(=O)NC(=O)Nc2ccc(-n3nc(C(F)(F)F)cc3C(F)(F)F)cc2)c1 | inactive: 1.29% | – |
| Cc1cc(C)n(-c2nnc(Nc3ccc(C(C)C)cc3)c3ccccc23)n1 | – | inactive |
| Fc1ccc(Nc2c3c(nc4nncn24)CCC3)cc1 | – | inactive |
| Cc1ccc2nc(-c3ccc(NC(=O)C(F)(F)F)cc3)sc2c1 | inactive: 8% | – |
| Cc1nc2c(c(C)nn2-c2ccccc2)c(C)c1CCC(=O)Nc1ccc(F)cc1 | inactive: 0.419% | – |
| COc1cc(Nc2nc(SCc3cccc(Cl)c3)nc3ccccc23)cc(OC)c1 | inactive: -0.15% | – |
| Nc1nc(Cl)nc2c1ncn2[C@H]1C[C@H](O)[C@@H](CO)O1 | inactive: -18.5% | – |
| CCC=CC[C@H]1C(=O)CC[C@@H]1CC(=O)OC | inactive: 0.598% | – |
| Cc1ccc2c(CC(=O)Nc3c(C(=O)c4ccc(F)cc4)oc4ccccc34)coc2c1 | inactive: 2.93% | – |
| O=C(CCSCc1ccc(Cl)cc1)N1CCN(c2ccccc2F)CC1 | inactive: -3.62% | – |

| SMILES | activity change, negative = inhibition | outcome |
| --- | --- | --- |
| COc1ccc(CCNC(=O)CS(=O)Cc2nc(-c3ccc(C)cc3)oc2C)cc1OC (stereo unspecified) | inactive: -4.76% | – |
| COc1ccc(N2CCN(C(=O)c3nn(C)c4c3CS(=O)(=O)c3ccccc3-4)CC2)cc1 | inactive: -6.61% | – |
| COc1ccc(-c2nc3c(c(SCc4cc(C)ccc4C)n2)Cc2c(CO)cnc(C)c2O3)cc1 | inactive: 3.46% | – |
| CC(NC(=O)C1CCN(C(=O)N2CCOc3ccc(Cl)cc32)CC1)c1ccccc1 (stereo unspecified) | inactive: 9.57% | – |
| CCC(=O)OCc1cnc(C)c2oc(=O)c(C(=O)Nc3ccc(CC)cc3)cc12 | inactive: 7.81% | – |
| CCCN(CCC)CCNC(=O)Cn1ncc2c([nH]c3ccc(C)cc32)c1=O | inactive: -0.319% | – |
| CCOc1ccc2oc(=O)cc(CN3CCN(C(=O)c4cccc(F)c4)CC3)c2c1 | inactive: 19.9% | – |
| NC(=O)c1cc(S(=O)(=O)NCc2ccc(Br)cc2)cs1 | – | inactive |
| COc1ccccc1Nc1nn2c(=O)c3ccc(C(=O)Nc4ccc(F)cc4)cc3nc2s1 | inactive: 6.93% | – |
| CCc1cccc(-n2c(=O)c3cccnc3n2CC(=O)NCc2ccccc2Cl)c1 | inactive: 9.27% | – |
| CCOC(=O)c1[nH]c(C)c(CCC(=O)NCc2ccc(C)cc2)c1C | inactive: 16.8% | – |
| CCOC(=O)c1ccc(NC(=O)CCc2c(C)n(CC)c3cc(-c4ccccc4OC)nn3c2=O)cc1 | inactive: -17.4% | – |
| CCOCCCNC(=O)c1cc2c(=O)n3ccccc3nc2s1 | inactive: -2.19% | – |
| O=C(/C=C\c1ccc2c(c1)OCO2)NC1CC(=O)N(c2ccc(F)cc2)C1 (stereo unspecified) | – | inactive |
| COc1ccc(N2CCN(C(=O)c3ccc(NC(=O)c4nsc5ccccc45)cc3)CC2)cc1 | inactive: -1.97% | – |
| CC(C)(C)c1ccc(C(=O)Nc2cc(-c3ccccc3)nn2-c2ccccc2)cc1 | inactive: 0.637% | – |
| Cc1ccc(C)c(N2CCN(C(=O)c3cc4cc5ccc(C)cc5nc4s3)CC2)c1 | – | inactive |
| CC1CCN(S(=O)(=O)c2cc(C(=O)NCCc3ccccc3)n(C)c2)CC1 | – | inactive |
| Cc1ccc(CNC(=O)CCn2ccc3cc(S(=O)(=O)N4CCCC4)ccc32)cc1 | inactive: 8.25% | – |
| O=C(CN1CCN(c2ccc(Cl)cc2)CC1)Nc1ccc(Cl)c(C(F)(F)F)c1 | inactive: -1.46% | – |
| CC1CCN(C(=O)CSc2nc3c([nH]c4ccccc43)c(=O)n2-c2ccccc2)CC1 | inactive: -2.21% | – |
| Cc1ccc(CSc2oc(-c3ccco3)nc2S(=O)(=O)c2ccc(Br)cc2)cc1 | inactive: -3.71% | – |
| Cc1ccc(CNc2nc3c(S(=O)(=O)c4ccc(C)c(C)c4)nnn3c3ccc(Cl)cc23)cc1 | inactive: 5.39% | – |
| COc1ccccc1NC(=O)CSc1nnc(-c2nonc2NC(C)=O)n1-c1ccccc1 | inactive: 11.8% | – |

| SMILES | activity change, negative = inhibition | outcome |
| --- | --- | --- |
| CCc1ccc(NC(=O)Cn2c(=O)n(Cc3nc(C)no3)c(=O)c3cc4c(cc32)OCO4)cc1 | – | inactive |
| CCOc1ccc(-n2c(=O)c3c4c(sc3n(Cc3cc(=O)n5cc(Cl)ccc5n3)c2=O)CCC4)cc1 | – | inactive |
| CCc1ccc(S(=O)(=O)N2CCN(c3ccc(Cl)c(Cl)c3)CC2)cc1 | inactive: -6.11% | – |
| CCOC(=O)c1ccccc1NC(=O)c1nn(-c2ccc(C)cc2)c(=O)n(C)c1=O | inactive: 6.48% | – |
| Cc1cccc(NC(=O)c2oc3ccc(S(=O)(=O)N(C)C4CCCCC4)cc3c2C)c1C | inactive: 1.64% | – |
| CCCCN(Cc1ccco1)C(=O)c1cc2c(s1)-c1c(C)cccc1OC2 | inactive: -20.7% | – |
| CCOc1cccc(C(=O)Nc2ccc(-c3nc4cc(C)cc(C)c4o3)cc2)c1 | inactive: -3.39% | – |
| CCc1ccccc1NC(=O)Cn1nnc(C(=O)Nc2ccc(OC)c(OC)c2)c1N | inactive: 6.11% | – |
| Cc1ccc(C(C)C)c(OCCCn2c(=O)oc3ccc(C)cc32)c1 | inactive: -7.33% | – |
| Nc1nc(N)c2nc(CNc3ccc(C(=O)NC(CCC(=O)O)C(=O)O)cc3)cnc2n1 (stereo unspecified) | inactive: -12.4% | – |
| CC(C)c1ccc(NC(=O)c2cnn3c(C(F)F)cc(-c4ccccc4)nc23)cc1 | inactive: 0.353% | – |
| Cc1cc(C)c(S(=O)(=O)N2CCC(N3CCN(Cc4ccc(F)cc4)C(=O)C3=O)CC2)c(C)c1 | inactive: 8.98% | – |
| COC(=O)Cn1ccc2cc(S(=O)(=O)N3CCCCC3)ccc21 | inactive: -1.06% | – |
| Cc1ccccc1NC(=O)c1ccc(F)c(S(=O)(=O)N2CCc3ccccc3C2)c1 | inactive: 3.61% | – |
| Cc1cccc(OCCOCCn2c(-c3ccc(Cl)cc3)nc3ccccc3c2=O)c1C | inactive: -3.42% | – |
| Cc1c(NC(=O)C(F)(F)F)ccc2nc3c(=O)n(C)c(=O)n(C)c3nc12 | – | inactive |
| COc1ccc(-c2cc(-c3ccc4c(c3)NC(=O)CO4)nc3c2COc2ccc(C)cc2-3)cc1 | inactive: 8.42% | – |
| COc1ccc(-n2ncc(C(=O)NCCCN3CCCCC3)c2C2CCN(C(=O)OC(C)(C)C)CC2)cc1 | – | inactive |
| CCc1ccccc1NC(=O)c1cnn(-c2ccc(F)cc2)c1C1CCNCC1 | inactive: 1.55% | – |
| CCOCCCNC(=O)Cn1cc2c(n1)-c1c(oc(C(=O)N3CCCC3)c1C)CC2 | inactive: -19.8% | – |
| COc1c(Cl)cc(Cl)cc1/C=C(\C#N)c1nc(-c2ccc(Cl)cc2)cs1 | inactive: 0.757% | – |
| COc1cccc(NC(=O)Cn2c(=O)n(CCCCC(=O)NCc3ccc4c(c3)OCO4)c(=O)c3ccccc32)c1 | – | inactive |
| O=C(O)COc1ccccc1C1Nc2ccccc2-c2nnc(SCc3ccc(Cl)cc3)nc2O1 (stereo unspecified) | inactive: -9.64% | – |
| O=c1cc(-c2cccc3c2Sc2ccccc2S3)oc(N2CCOCC2)c1 | inactive: -13.4% | – |

| SMILES | activity change, negative = inhibition | outcome |
| --- | --- | --- |
| Cc1ccc(C)c(N2CCN(C(=O)C3CCC(CNS(=O)(=O)c4ccc(Br)s4)CC3)CC2)c1 (stereo unspecified) | inactive: -4.13% | – |
| CC(C)(C)C(=O)Nc1ccc2nc(SCCOc3ccccc3Cl)sc2c1 | inactive: -5.21% | – |
| Oc1cccc(Nc2cc(-c3ccccc3)ncn2)c1 | inactive: 3.43% | – |
| CCOc1ccc(-c2cc(CCCC(=O)NCCc3ccc(OC)c(OC)c3)no2)cc1 | – | inactive |
| CCC(Sc1ncnc2sc3c(c12)CCCC3)C(=O)OCC(C)C (stereo unspecified) | – | inactive |
| CCOc1ccccc1C(=O)Nc1cc(-c2nc3cccnc3s2)ccc1C | inactive: 0.439% | – |
| COc1ccc(Nc2oc(-c3ccc(COc4ccccc4)o3)nc2C#N)cc1 | inactive: -3.22% | – |
| COc1ccc(-n2c(SCc3nc(-c4ccc(Cl)cc4)no3)nnc2-c2ccncc2)cc1 | inactive: -26.2% | – |
| CCOC(=O)N1CCC(NC(=O)c2cnn(-c3ccc(C)cc3)c2C2CCN(C(=O)OC(C)(C)C)CC2)CC1 | inactive: 3.89% | – |
| N#Cc1ccc(NC(=O)c2ccc3c(c2)nnn3C2CCCC2)cc1 | inactive: 51.6% | – |
| CCCS(=O)(=O)N1CC(=O)N(c2cc(C)cc(C)c2)C(C)(C(=O)NC2CCCCCC2)C1 (stereo unspecified) | – | inactive |
| CC(CNC(=O)c1csc2c1CCCCC2)c1ccccc1 (stereo unspecified) | – | inactive |
| O=C(Nc1cccc(O)c1)c1cc(-c2ccccc2F)no1 | inactive: -0.164% | – |
| CCc1ccc(NC(=O)Cn2nnc(C(=O)Nc3ccc(F)cc3)c2N)cc1 | inactive: -7.26% | – |
| Cc1ccc(C)c(CSc2cn(CCNC(=O)c3cccs3)c3ccccc23)c1 | inactive: 1.53% | – |
| CCc1ccc(NS(=O)(=O)c2ccc(NC(=O)N3CCCC3)cc2)cc1 | – | inactive |
| Cc1ccc(CSc2nc3cc(C(=O)NC4CCCC4)ccc3c(=O)n2Cc2ccccc2)cc1 | inactive: 3.8% | – |
| Cc1ccc(NC(=O)CCc2c(C)nc3ncnn3c2C)cc1Cl | – | inactive |
| Cc1ccccc1NC(=O)Cn1nnc(C(=O)NCc2cccs2)c1N | inactive: -0.395% | – |
| Cc1cccc(NC(=O)CN2C(=O)CC(c3ccccc3)Sc3ccccc32)c1 (stereo unspecified) | – | inactive |
| COc1cc(NC(=O)c2cc(S(=O)(=O)N3CCC(C)CC3)cn2C)cc(OC)c1OC | inactive: 7.5% | – |
| CCOC(=O)C1CCCN(C(=O)Cn2ncc3c4ccccc4n(C)c3c2=O)C1 (stereo unspecified) | inactive: -1.04% | – |
| O=C(NCc1cccc(Cl)c1)c1ccc2c(Cl)c3c(nc2c1)CCCC3 | inactive: -1.54% | – |
| COc1ccc(CCN2C(=O)N(c3ccc(C)cc3)C(=O)C2CC(=O)Nc2ccc(OC)cc2)cc1 (stereo unspecified) | inactive: 1.36% | – |
